Assay results reported in the supplement of paper PMC4967469.
IC50 is the fitted dose that halves viability relative to control wells, and lower means more sensitive; fits outside the tested doses are given as limits. The AUC spans the tested range (256-fold, ending at the top dose) of the same fit; the more sensitive the line, the further below 1. Where the top dose is marked as inferred, it was calculated from the reported fits.

Columns and labels:
Experiment in all cases: Viability of human cancer cell lines after 72 h of drug (GDSC screen)
XMD8-92 = compound: CCOc1cc(N2CCC(O)CC2)ccc1Nc1ncc2c(n1)N(C)c1ccccc1C(=O)N2C [XMD8-92]; conditions: top dose 10 µM; top dose inferred
Description: (§1)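 Human cancer cell lines in 384-well plates, medium with 10% serum, drug for 72 h over a 256-fold dose range (nine 2-fold or five 4-fold steps up to the top dose). Adherent lines were fixed and stained with the nucleic acid dye Syto60, suspension lines read with resazurin; signal relative to control wells, capped at 0 and 100%. One two-parameter sigmoid per drug and line, fitted in a mixed model over all curves with the slope shared within a line.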

ACHP (KIN001-260) = compound: N#Cc1c(C2CCNCC2)cc(-c2c(O)cccc2OCC2CC2)nc1N [ACHP (KIN001-260)]; conditions: top dose 20 µM; top dose inferred
Description: as §1

CAY10603 = compound: CC(C)(C)OC(=O)Nc1ccc(-c2cc(C(=O)NCCCCCCC(=O)NO)no2)cc1 [CAY10603]; conditions: top dose 20 µM; top dose inferred
Description: as §1

CH5424802 = compound: CCc1cc2c(cc1N1CCC(N3CCOCC3)CC1)C(C)(C)c1[nH]c3cc(C#N)ccc3c1C2=O [CH5424802]; conditions: top dose 5.12 µM; top dose inferred
Description: as §1

Cell Line | AUC (XMD8-92) | IC50 (XMD8-92) [µM] | AUC (ACHP (KIN001-260)) | IC50 (ACHP (KIN001-260)) [µM] | AUC (CAY10603) | IC50 (CAY10603) [µM] | AUC (CH5424802) | IC50 (CH5424802) [µM]
LAN-6 (neuroblastoma, adherent) | 0.97 | > 10 | 0.98 | > 20 | 0.798 | 11.6 | 0.881 | > 5.12
LB373-MEL-D (melanoma, adherent) | 0.911 | > 10 | 0.966 | > 20 | 0.585 | 2.13 | 0.988 | > 5.12
LB771-HNC (head and neck, adherent) | 0.834 | 8.95 | 0.981 | > 20 | 0.78 | 10.4 | 0.982 | > 5.12
LB831-BLC (bladder, adherent) | 0.85 | 7.74 | 0.681 | 4.04 | 0.592 | 2.24 | 0.987 | > 5.12
LB996-RCC (kidney, adherent) | 0.844 | 8.97 | 0.978 | > 20 | 0.982 | > 20 | 0.981 | > 5.12
LB1047-RCC (kidney, adherent) | 0.894 | > 10 | 0.964 | > 20 | 0.463 | 0.976 | 0.976 | > 5.12
LB2241-RCC (kidney, adherent) | 0.855 | 9.47 | 0.974 | > 20 | 0.723 | 5.83 | 0.984 | > 5.12
LB2518-MEL (melanoma, adherent) | 0.956 | > 10 | 0.986 | > 20 | 0.64 | 3.12 | 0.987 | > 5.12
LC-1-sq (lung squamous cell carcinoma, adherent) | 0.888 | > 10 | 0.984 | > 20 | 0.574 | 2.07 | 0.96 | > 5.12
LCLC-97TM1 (large cell lung carcinoma, adherent) | 0.902 | > 10 | 0.843 | 16.2 | 0.487 | 1.15 | 0.979 | > 5.12
LK-2 (lung squamous cell carcinoma, adherent) | 0.938 | > 10 | 0.978 | > 20 | 0.443 | 0.882 | 0.987 | > 5.12
LNCaP-Clone-FGC (prostate, adherent) | 0.86 | > 10 | 0.946 | > 20 | 0.398 | 0.631 | 0.982 | > 5.12
LOU-NH91 (lung squamous cell carcinoma, adherent) | 0.909 | > 10 | 0.986 | > 20 | 0.609 | 2.56 | 0.983 | > 5.12
LOXIMVI (melanoma, semi-adherent) | 0.89 | 9.37 | 0.984 | > 20 | 0.591 | 2.15 | 0.989 | > 5.12
LP-1 (myeloma, suspension) | 0.965 | > 10 | 0.918 | > 20 | 0.382 | 0.628 | 0.984 | > 5.12
LS-123 (large intestine, adherent) | 0.98 | > 10 | 0.972 | > 20 | 0.56 | 1.92 | 0.971 | > 5.12

Cell Line | AUC (XMD8-92) | IC50 (XMD8-92) [µM] | AUC (ACHP (KIN001-260)) | IC50 (ACHP (KIN001-260)) [µM] | AUC (CAY10603) | IC50 (CAY10603) [µM] | AUC (CH5424802) | IC50 (CH5424802) [µM]
LS-180 (large intestine, adherent) | 0.983 | > 10 | 0.985 | > 20 | 0.651 | 3.51 | 0.982 | > 5.12
LS-513 (large intestine, adherent) | 0.959 | > 10 | 0.888 | > 20 | 0.668 | 3.75 | 0.987 | > 5.12
LS-1034 (large intestine, adherent) | 0.892 | > 10 | 0.902 | > 20 | 0.509 | 1.33 | 0.984 | > 5.12
LXF-289 (lung adenocarcinoma, adherent) | 0.906 | > 10 | 0.979 | > 20 | 0.565 | 1.87 | 0.981 | > 5.12
LoVo (large intestine, adherent) | 0.904 | > 10 | 0.971 | > 20 | 0.738 | 6.02 | 0.987 | > 5.12
M059J (glioma, adherent) | 0.884 | > 10 | 0.821 | 12.8 | 0.582 | 2.14 | 0.985 | > 5.12
MC-CAR (haematopoietic neoplasm, suspension) | 0.841 | 5.89 | 0.877 | 16.4 | 0.284 | 0.331 | 0.988 | > 5.12
MDA-MB-175-VII (breast, adherent) | 0.986 | > 10 | 0.968 | > 20 | 0.748 | 7.02 | 0.979 | > 5.12
MDA-MB-330 (breast, adherent) | 0.955 | > 10 | 0.983 | > 20 | 0.612 | 2.66 | 0.983 | > 5.12
MDA-MB-415 (breast, adherent) | 0.925 | > 10 | 0.97 | > 20 | 0.847 | > 20 | 0.969 | > 5.12
MDA-MB-468 (breast, adherent) | 0.966 | > 10 | 0.973 | > 20 | 0.684 | 3.99 | 0.902 | > 5.12
MDST8 (large intestine, adherent) | 0.912 | > 10 | 0.978 | > 20 | 0.546 | 1.67 | 0.985 | > 5.12
MES-SA (uterus, adherent) | 0.931 | > 10 | 0.991 | > 20 | 0.992 | > 20 | 0.992 | > 5.12
MFE-280 (endometrium, adherent) | 0.98 | > 10 | 0.899 | > 20 | 0.509 | 1.33 | 0.981 | > 5.12
MFE-296 (endometrium, adherent) | 0.906 | > 10 | 0.982 | > 20 | 0.813 | 11.8 | 0.985 | > 5.12
